According to PubChem BioAssay AID463173 (ICCB-Longwood Screening Facility, Harvard Medical School, 2010):
The whole screen tested about 52,000 compounds, of which about 1,700 (3.3%) were called active. No stated cut-off is given here; in the data, active means survival mostly below about 52% (no sharp cut-off); inactive means mostly above about 56%. Some of the results follow.

These compounds were tested on Wild type (assay: S. aureus survival, RN4220 and DeltatarO strains – OD600, teichoic acid synthesis inhibitors, primary screen (AID 463173)). Settings: S. aureus RN4220 wild type/DeltatarO growth, OD600, 18 h, active compounds read low, screened at 18.75 µg/mL (by protocol).

Structure (SMILES)	survival
Cc1cccc(N2C(=O)CS(=O)(=O)C23C(=O)N(C)c2ccccc23)c1 (centres undefined)	inactive: 77%
CN1c2ccc(Cl)cc2-c2nc(SCC(=O)Nc3cc(F)ccc3F)ncc2S1(=O)=O	inactive: 68%
COC(=O)NNC(=O)C1CCC(C)CC1 (centres undefined)	inactive: 68%
O=C(c1ccco1)N1CCN(c2nc3ccc(Cl)cc3s2)CC1	inactive: 78%
CCn1ccc2cc(S(=O)(=O)N3CCC(C(=O)NCCOC)CC3)ccc21	inactive: 47%
CCc1nc2ccc(C(=O)NCCc3ccc(OC)c(OC)c3)cc2nc1CC	inactive: 78%
CCOc1ccccc1CNC(=O)c1[nH]c2ccccc2c1Sc1ccccc1	inactive: 81%
NC(=S)N(c1ccccc1)c1ccccc1	inactive: 108%
CCN1CCN(CCCNC(=O)c2cc3c(s2)-c2c(C)cccc2OC3)CC1	inactive: 87%
O=S(=O)(c1ccc(-c2cc(C(F)(F)F)on2)s1)N1CCN(c2cccc(Cl)c2)CC1	inactive: 128%
Cc1nn2c(C(F)(F)F)cc(-c3ccc(OC(C)C)cc3)nc2c1C#N	inactive: 75%
CCC(CC)NC1CCN(Cc2ccccc2)CC1	inactive: 98%
Cc1ccccc1OCC(=O)Nc1ccccc1C(=O)OCc1cc(=O)n2c(C)csc2n1	inactive: 73%
COCCn1c(C)cc(O)c(C(c2ccccc2OC)N2CCCCC2)c1=O (centres undefined)	inactive: 88%
COc1ccc(OC)c(CCNC(=O)c2ccc3[nH]c(C)c(C)c3c2)c1	inactive: 153%
CC1(C)CC2CC(C)(CN2C(=O)CCCN2C(=O)c3ccccc3C2=O)C1 (centres undefined)	inactive: 115%
Cc1ccc(C)c(N2CCN(C(=O)c3cccn3-c3nnc(N4CCCCC4)s3)CC2)c1	inactive: 65%
COc1ccccc1CCNC(=O)CCc1c(C)c2cc3c(C)coc3cc2oc1=O	inactive: 82%
COc1cccc(CNC(=O)c2cc3c(=O)n(C)c4ccccc4c3n2C)c1	inactive: 92%
COc1ccc2cc(CNc3ccccc3)c(=O)n(CC(=O)Nc3ccc(C)cc3C)c2c1	active: -2%
Cc1ccc2c(CC(=O)Nc3c(C(=O)Nc4cccc(Cl)c4)oc4ccccc34)coc2c1C	inactive: 88%
O=C(NN1C(=O)C2C3c4ccccc4C(c4ccccc43)C2C1=O)c1cccnc1 (centres undefined)	inactive: 108%
Cc1ccc2nc(SCc3nc(-c4ccccc4C)no3)[nH]c2c1	inactive: 27%

Structure (SMILES)	survival
CC(C)(C)NC(=O)C1CC(=O)OC12CCCCC2 (centres undefined)	inactive: 104%
Cc1ccc(N2CCN(C(=O)C3CCC(CNS(=O)(=O)c4ccc(Br)s4)CC3)CC2C)cc1 (centres undefined)	inactive: 70%
Cc1ccc(NC(=O)Cn2c(=O)c(C(F)(F)F)nc3ccccc32)c(C)c1	inactive: 71%
CCCCN(CC)CCNC(=O)Cn1c(=O)c2cccn2c2cccnc21	inactive: 86%
CCc1cccc(OCC(=O)Nc2c[nH]c(=O)[nH]c2=O)c1	inactive: 102%
COc1ccc(NC(=O)CSC2=Nc3ccccc3C3=NC(Cc4ccccc4)C(=O)N23)cc1Cl (centres undefined)	inactive: 68%
CN(Cc1ccccc1)C(=O)Cn1ncc2c3ccccc3n(Cc3cccc(Cl)c3)c2c1=O	inactive: 94%
Cc1ccc(Nc2cc(C(=O)NC3CCCC3)c3ccccc3n2)c(C)c1	inactive: 91%
O=S(=O)(Nc1cccnc1)c1ccc(C2CCCCC2)cc1	inactive: 110%
Cc1ccc(Cl)cc1Nc1sc(C(=O)c2ccccc2)c(N)c1S(=O)(=O)c1ccccc1	inactive: 91%
CC(C)(C)c1ccc(C(=O)N2CC(=O)Nc3ccc(F)cc3C2c2ccc(F)cc2)cc1 (centres undefined)	inactive: 86%
Cc1cc(C)c2oc(-c3cccc(NC(=O)c4cc5ccccc5o4)c3)nc2c1	inactive: 65%
COc1cc(C)nc(N2CCCC(C(=O)Nc3ccccc3Br)C2)n1 (centres undefined)	inactive: 106%
CCc1cnc2c(c1SCC(=O)NCc1ccccc1)c(=O)n(C)c(=O)n2C	inactive: 99%
COc1cc(CCC(=O)NCc2ccc3c(c2)CCN3C(=O)c2cccc(C)c2)cc(OC)c1OC	inactive: 133%
COc1cc(C2c3c(oc4ccccc4c3=O)C(=O)N2Cc2ccccc2Cl)ccc1O (centres undefined)	inactive: 82%
CCc1ccc(N(CC)C(=O)Cn2c(=O)oc3ccccc32)cc1	inactive: 71%
Cc1ccc(-n2ncc(C(=O)Nc3ccc4c(c3)OCO4)c2C2CCN(C(=O)OC(C)(C)C)CC2)cc1	inactive: 85%
Cc1nc2scc(C)n2c(=O)c1S(=O)(=O)Nc1ccc(N2CCOCC2)cc1	inactive: 82%
Cc1ccnc(NS(=O)(=O)c2cc(-c3cc(C)no3)ccc2C)c1	inactive: 78%
COc1cccc2cc(C(=O)NCCc3c(C)[nH]c4ccc(Br)cc34)c(=O)oc12	inactive: 129%
COc1ccc(NC(=O)C2CCCN(S(=O)(=O)c3ccc4c(c3)CCCC(=O)N4)C2)c(OC)c1 (centres undefined)	inactive: 71%
Cc1nn(S(=O)(=O)c2ccc(F)cc2)c(C)c1S(=O)(=O)N1CCC(C)CC1	active: -3%

Structure (SMILES)	survival
CCOCCn1ccc2c(OCC(=O)Nc3ccc(OC(F)(F)F)cc3)cccc2c1=O	inactive: 74%
O=C(CN1C(=O)CC(c2ccccc2)Sc2ccccc21)Nc1cccc(Cl)c1 (centres undefined)	inactive: 92%
CC(=O)c1cccc(NC(=O)CCS(=O)(=O)c2ccc(Br)s2)c1	inactive: 74%
CCOC(=O)c1cc2c(=O)n3ccccc3nc2n(CC(C)C)c1=NC(=O)c1cc2ccccc2o1	inactive: 60%
CC(C)(C)N1Sc2ccccc2NC1=S	inactive: 94%
Cc1ccc(S(=O)(=O)c2cn(Cc3ccc(F)cc3)c3cc(F)c(F)cc3c2=O)cc1	inactive: 95%
Cc1ccc(CCNC(=O)C2CCN(c3nnc(-n4cccc4CNc4ccc(C)cc4)s3)CC2)cc1	inactive: 139%
CCN(C(=O)Cn1c(=O)oc2cc(Cl)ccc21)c1cccc(C(F)(F)F)c1	inactive: 83%
COc1ccc(/C=C/C(=O)Nc2nc3n(n2)C(c2ccccc2)C=C(c2ccccc2)N3)cc1 (centres undefined)	inactive: 82%
Cc1ccc(-c2cnc(NCc3ccc(C(F)(F)F)cc3)n2C)cc1	active: -13%
C=CCNC(=S)N1CCC(C(=O)c2ccc(C)cc2)CC1	inactive: 117%
CN1C(=O)C2(c3ccccc31)N(c1cccc(F)c1)C(=O)CS2(=O)=O (centres undefined)	inactive: 128%
COCCCNC(=O)c1cc(-c2cccnc2)nc2ccc(S(=O)(=O)N3CCC(C)CC3)cc12	inactive: 126%
COc1ccccc1NC(=O)N1CCN(c2cc(-c3ccccc3)nc3ncnn23)CC1	inactive: 99%
O=C(NCc1ccccc1Cl)c1cnc2sc(N3CCCCC3)nn2c1=O	inactive: 81%
COc1ccc(Cl)cc1NC(=O)c1c(NCc2sccc2C)sc2c1CCCC2	inactive: 70%
Clc1ccccc1CNc1nc2ccccc2c2nc(-c3cccnc3)nn12	inactive: 85%
Cc1ccc(CN(C2CCCC2)S(=O)(=O)c2ccc(S(=O)(=O)N3CCCC(C)C3)cc2)o1 (centres undefined)	inactive: 101%
O=S(=O)(c1ccc(Br)cc1)c1nc(-c2cccs2)oc1SCc1ccccc1F	inactive: 69%
O=C(Cn1nnc(-c2ccc(Cl)cc2)n1)NCc1ccc(F)cc1	inactive: 83%
COc1ccc(OC)c(CNS(=O)(=O)c2c(C(=O)N3CCCCCC3)c(C)n(C)c2C)c1	inactive: 135%
COc1ccccc1N1CCN(C(=O)CCNS(=O)(=O)c2ccc3c(c2)CCN3C(=O)C2CC2)CC1	inactive: 90%
Cc1ccc(CNC(=O)Cn2cc(S(=O)(=O)Cc3ccccc3F)c3ccccc32)cc1	inactive: 121%

Structure (SMILES)	survival
Cc1ccc(NC(=O)c2cnc(SCC(=O)Nc3cc(C)on3)n(C)c2=O)cc1	inactive: 78%
COc1ccc(Cl)cc1NC(=O)CSC1=Nc2ccccc2C2=NC(CC(=O)NCc3ccc4c(c3)OCO4)C(=O)N12 (centres undefined)	inactive: 76%
COc1ccccc1C(=O)Nc1ccc2c(c1)nc(CN1CCCCC1)n2C	inactive: 81%
CCn1c(=O)n(CC)c2cc(N3CCCCC3)c(NC(=O)Nc3ccccc3C(F)(F)F)cc21	inactive: 75%
Cc1cc(C)n2nc(SCC(=O)Nc3cccc(C(F)(F)F)c3)nc2n1	inactive: 56%
C=CCc1ccccc1OCC(O)CN1CCN(c2ccccc2)CC1 (centres undefined)	inactive: 54%
CCc1ccccc1NC(=O)c1cnc2sc(N3CCOCC3)nn2c1=O	inactive: 136%
CCOC(=O)c1ccc(NC(=O)CC2C(=O)N(c3cccc(OC)c3)C(=O)N2Cc2ccc(OC)cc2)cc1 (centres undefined)	inactive: 76%
COc1ccc(C(CC(=O)NCc2ccccc2)N2Cc3ccccc3C2=O)cc1 (centres undefined)	inactive: 124%
CCC(Oc1ccc(F)cc1)C(=O)Nc1nc(-c2ccc(F)cc2)ns1 (centres undefined)	active: -1%
CN(Cc1ccccc1)C(=O)CSc1nc2ccccc2n1Cc1ccccc1F	inactive: 68%
Cc1ccccc1NC(=O)CSc1nc(=O)n(CCN2CCOCC2)c2c1CCC2	inactive: 92%
CC(C)c1cnc2c(c1SCC(=O)NCc1ccccc1)c(=O)n(C)c(=O)n2C	inactive: 73%
Cc1ccc(-c2nc3ccc(Cl)cn3c2Nc2ccccc2C)s1	inactive: 94%
COC(=O)c1ccc(NC(=O)CCc2c(C)nc3c(c2C)c(=O)n(C)c(=O)n3C)cc1	inactive: 80%
COc1ccccc1Cc1nc2ccccc2nc1SCC(=O)Nc1cccc(Cl)c1C	inactive: 71%
Cc1sc2c(c1C)c(=O)n(-c1cccc(C(F)(F)F)c1)c(=O)n2Cc1ccc(F)cc1	inactive: 84%
COCCNC(=O)Cn1nc(C(F)(F)F)cc1C	inactive: 109%
N#Cc1c(N)nc2c(c1-c1ccc3c(c1)OCO3)CCc1ccccc1-2	inactive: 112%
COc1cc(NC(=O)CSC2=Nc3ccccc3N=C(c3ccc(F)cc3)C2)cc(OC)c1	inactive: 71%
